The results in this text go back to article PMC5892938.

The list shows a part of the results. At the low end of the ranking the order means little.

For the test, the target named is GST-SBP-SLBP (stem-loop binding protein) (UniProt Q14493). In words: targeted RNA Bind-n-Seq.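 Note: DESeq read counts versus GST-SBP nonspecific binding control pulldown.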 Conditions: RBNS binding buffer: 25 mM Tris pH 7.5, 150 mM KCl, 3 mM MgCl2, 0.1% Tween, 0.5 mg/mL BSA, 1 mM DTT; 27 nM protein, 750 pM RNA pool; temperature not stated; high values mean tight binding.
As to “GGUCACGUCUCAAUCAACUCCUUAGAGGGGGGGAAAACCCCUUUACCCUCACACUCAACAGCUCGCAGUCAAG”, the binding signal (log2 fold change) came out at 0.0368. For “GGUCACGUCUCAAUCAACUCUUCCUCCAGGGAAAUCCCUGGUUUUCUCAACAGCUCGCAGUCAAG” the value was -0.205; for “GGUCACGUCUCAAUCAACUCUAUGGCCAGGGAAAUCCCUGGGAAAUUCAACAGCUCGCAGUCAAG”, -0.219. For “GGUCACGUCUCAAUCAACUCCUUCGAGGGGGGGAAAACCCCUUUACCCUCUACUUCAACAGCUCGCAGUCAAG”, the binding signal (log2 fold change) is -0.0914. “GGUCACGUCUCAAUCAACUCUUACGAGGGGGGGAAAACCCCUUUACCCUCUAUAUCAACAGCUCGCAGUCAAG”: the binding signal (log2 fold change) was -0.134.

Regarding “GGUCACGUCUCAAUCAACUCUACUUCAGGAGUUUUCUCCUGCAAACUCAACAGCUCGCAGUCAAG”, the binding signal (log2 fold change) was -0.0143. Then “GGUCACGUCUCAAUCAACUCUUUCUCAGGAGUUUCCUCCUGUAUAUUCAACAGCUCGCAGUCAAG”, with 0.148. Then “GGUCACGUCUCAAUCAACUCUUUCUCAGGAGUUUUCUCCUGCAUUCUCAACAGCUCGCAGUCAAG”, with 0.0931; and “GGUCACGUCUCAAUCAACUCAAUCCCAGGAGUUUUCUCCUGUUUUUUCAACAGCUCGCAGUCAAG”, with -0.3; and “GGUCACGUCUCAAUCAACUCUAUAGAGGGGGGGAAAACCCCUUUACCCUCCACGUCAACAGCUCGCAGUCAAG”, with 0.00714.

In the case of “GGUCACGUCUCAAUCAACUCAUUUCCAGGAGUUUACUCCUGUAUUCUCAACAGCUCGCAGUCAAG”, the binding signal (log2 fold change) is -0.0595.

In the case of “GGUCACGUCUCAAUCAACUCUACUUCCAGGGAAAACCCUGGUAAAUUCAACAGCUCGCAGUCAAG”, the binding signal (log2 fold change) was -0.174. For “GGUCACGUCUCAAUCAACUCAACGCCAGGAGUUUUCUCCUGUUAUCUCAACAGCUCGCAGUCAAG” the value was 0.014; for “GGUCACGUCUCAAUCAACUCUCACGAGGGGGGGAAAACCCCUUUGCCCUCAUUCUCAACAGCUCGCAGUCAAG”, -0.419. Then “GGUCACGUCUCAAUCAACUCAUCCUCAGGAGUUUUCUCCUGCAAUCUCAACAGCUCGCAGUCAAG”, with -0.0897; and “GGUCACGUCUCAAUCAACUCUAAGGAGGGGGGGAAAACCCCUUUACCCUCAAUAUCAACAGCUCGCAGUCAAG”, with 0.0577. “GGUCACGUCUCAAUCAACUCUUCCCCAGGAGUUUUCUCCUGCUUUUUCAACAGCUCGCAGUCAAG”: the binding signal (log2 fold change) worked out at 0.0526. Then “GGUCACGUCUCAAUCAACUCAUCGCCAGGAGUUUACUCCUGCUUUCUCAACAGCUCGCAGUCAAG”, with 0.0446; and “GGUCACGUCUCAAUCAACUCUUUUUCAGGAGUUUCCUCCUGUAUACUCAACAGCUCGCAGUCAAG”, with 0.118; and “GGUCACGUCUCAAUCAACUCUUCGCCCAGGGAAAACCCUGGUUAAUUCAACAGCUCGCAGUCAAG”, with 0.0886. “GGUCACGUCUCAAUCAACUCACACGAGGGGGGGAAAACCCCUUUACCCUCAAUAUCAACAGCUCGCAGUCAAG”: the binding signal (log2 fold change) was found to be 0.197.

As for “GGUCACGUCUCAAUCAACUCAUUUCCCAGGGAAAACCCUGGCUAACUCAACAGCUCGCAGUCAAG”, the binding signal (log2 fold change) is -0.0182. For “GGUCACGUCUCAAUCAACUCCUCAGAGGGGGGGAAAACCCCUUUACCCUCCACAUCAACAGCUCGCAGUCAAG” the value was -0.302.

As to “GGUCACGUCUCAAUCAACUCCAUCGAGGGGGGGAAAACCCCUUUACCCUCAACAUCAACAGCUCGCAGUCAAG”, the binding signal (log2 fold change) is -0.372. For “GGUCACGUCUCAAUCAACUCUCACGAGGGGGGGAAAACCCCUUUACCCUCUCCAUCAACAGCUCGCAGUCAAG” the value was -0.328. Then “GGUCACGUCUCAAUCAACUCAACGGAGGGGGGGAAAACCCCUUUACCCUCACUAUCAACAGCUCGCAGUCAAG”, with 0.0868. Regarding “GGUCACGUCUCAAUCAACUCAUCGCCAGGAGUUUCCUCCUGUUUAUUCAACAGCUCGCAGUCAAG”, the binding signal (log2 fold change) is -0.344. For “GGUCACGUCUCAAUCAACUCAUCUUCAGGAGUUUUCUCCUGUAUUCUCAACAGCUCGCAGUCAAG” the value was 0.115; for “GGUCACGUCUCAAUCAACUCUUCGUCCAGGGAAAACCCUGGUAAUUUCAACAGCUCGCAGUCAAG”, -0.0606. Take “GGUCACGUCUCAAUCAACUCACUAGAGGGGGGGAAAACCCCUUUACCCUCCUAUUCAACAGCUCGCAGUCAAG”: the binding signal (log2 fold change) was -0.0678.

As to “GGUCACGUCUCAAUCAACUCUAUUUCCAGGGAAAUCCCUGGUAUACUCAACAGCUCGCAGUCAAG”, the binding signal (log2 fold change) was -0.0561. Then “GGUCACGUCUCAAUCAACUCUAUCUCCAGGGAAACCCCUGGCAAAUUCAACAGCUCGCAGUCAAG”, with -0.136.

“GGUCACGUCUCAAUCAACUCAUCUCCCAGGGAAAGCCCUGGCUUUUUCAACAGCUCGCAGUCAAG”: the binding signal (log2 fold change) stood at 0.288.

Take “GGUCACGUCUCAAUCAACUCAAAAGAGGGGGGGAAAACCCCUUUGCCCUCCAUGUCAACAGCUCGCAGUCAAG”: the binding signal (log2 fold change) is -0.397. For “GGUCACGUCUCAAUCAACUCAAACGAGGGGGGGAAAACCCCUUUACCCUCACACUCAACAGCUCGCAGUCAAG” the value was 0.0128; for “GGUCACGUCUCAAUCAACUCAAUUCCAGGAGUUUACUCCUGCUUACUCAACAGCUCGCAGUCAAG”, -0.0216; for “GGUCACGUCUCAAUCAACUCUUCUUCAGGAGUUUACUCCUGUUUUCUCAACAGCUCGCAGUCAAG”, 0.19.
